# Data taken from PubChem BioAssay AID1745853 (National Center for Advancing Translational Sciences (NCATS), 2022).
# Values joined by “and” are separate entries in the source; they are usually repeats but may differ in a detail not shown here. Equal entries are not always repeated. The list shows a part of the results. Shown are side measurements of this screen, not its main read-out; they come without a call.
# Columns and labels:
# Assay in all cases: Primary Screen for Target Class Profiling of Small Molecule Inhibitors of Methyltransferases
# [1] = target: Glycine N-methyltransferase (Homo sapiens) (UniProt Q14749); conditions: purified enzyme, MTase-Glo SAH luminescence; measured here: GNMT inhibition; at 40 µM; stronger effect = lower value
# Summary of the method: (§1)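 Each enzyme was assayed with SAM and its substrate. SAH formation detected by MTase-Glo luminescence; single-point 40 uM screen[…].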
# [2] = target: Guanidinoacetate N-methyltransferase (Homo sapiens) (UniProt Q14353); conditions: purified enzyme, MTase-Glo SAH luminescence; measured here: GAMT inhibition; at 40 µM; stronger effect = lower value
# Summary of the method: as §1
# [3] = target: Histamine N-methyltransferase (Homo sapiens) (UniProt P50135); conditions: purified enzyme, MTase-Glo SAH luminescence; measured here: HNMT inhibition; at 40 µM; stronger effect = lower value
# Summary of the method: as §1
# [4] = target: Nicotinamide N-methyltransferase (Homo sapiens) (UniProt P40261); conditions: purified enzyme, MTase-Glo SAH luminescence; measured here: NNMT inhibition; at 40 µM; stronger effect = lower value
# Summary of the method: as §1
# [5] = target: Phenylethanolamine N-methyltransferase (Homo sapiens) (UniProt P11086); conditions: purified enzyme, MTase-Glo SAH luminescence; measured here: PNMT inhibition; at 40 µM; stronger effect = lower value
# Summary of the method: as §1
# % is set by controls: 0 for no effect and ±100 for the full control effect.
Structure (SMILES),"activity change, negative = inhibition [1]","activity change, negative = inhibition [2]","activity change, negative = inhibition [3]","activity change, negative = inhibition [4]","activity change, negative = inhibition [5]"
C[C@@H](NC(=O)[C@@H]1C[C@@H](NS(=O)(=O)c2cccs2)CCN1C(=O)c1ccco1)C(N)=O,-5.27%,-5.07%,-1.13%,-13.1%,-7.05%
Cn1cc(S(=O)(=O)c2ccc(Cl)cc2)c2cccc(N3CCNCC3)c21,-7.98%,2.4%,-11.1%,-20.7%,-8.09%
Cc1nn2c(N3CCC(O)C3)cc(-c3ccccc3)nc2c1C (stereo not drawn),-2.92%,-3.8%,-6.29%,-5.84%,-5.29%
CC1(C(=O)NC2CCCCC2)Cn2c(cc3occc32)C(=O)N1C1CCCC1 (stereo not drawn),5.82%,0.32%,8.59%,14.1%,5.37%
CC1=C[C@@H](CNC(=O)c2cnccn2)[C@H](C(C)C)C[C@H]1CC(=O)O,-4.9%,-2%,-0.408%,-6.43%,-5.14%
Cc1cc(Nc2nc(-c3ccccc3)nc3ccccc23)n[nH]1,-13.6%,4.74%,-2.15%,-17%,1.88%
Brc1cccc(-c2nnn3c2nc(NCC2CCCO2)c2ccccc23)c1 (stereo not drawn),-2.28%,1.6%,2.25%,-3.35%,-5.57%
Cc1ccc(N2C(=O)Cn3cccc3C2C(=O)NC2CCCCC2C)cc1 (stereo not drawn),-0.771%,1.01%,-2.91%,4.49%,-4.18%
O=C(Cn1ccc2cc(S(=O)(=O)N3CCCCC3)ccc21)NCc1ccc2c(c1)OCO2,1.62%,2.8%,2.23%,-8.58%,-1.11%
Cc1ccc(Cn2c(=O)c3ccccc3n3c(SCC(=O)Nc4ccc(Cl)cc4)nnc23)cc1,6.71%,0.406%,13.5%,5.34%,7.01%
O=C(c1ccc(C(F)(F)F)cc1)N1CCC2(CC1)COc1ccccc1NC2=O,-10.3%,-4.73%,-6.02%,-10.3%,-7.36%
CNC(=O)c1noc([C@@H]2CC(F)(F)CN2Cc2cnn(C(C)C)c2)n1,-0.193%,-0.351%,0.874%,-0.215%,-2.27%
Cc1cc2c(cc3n2CC(C)(C(=O)NC2CCCCCCC2)N(CCC(C)C)C3=O)o1 (stereo not drawn),-3.21%,3.11%,8.88%,-9.97%,-10.6%
O=C(/C=C/c1ccc2ccccc2n1)c1ccncc1,,6.96%,,-15.9%,2.59%
CCCCN1C(=O)c2cc(C(=O)NCCc3ccc(C)cc3)nn2CC1(C)C(=O)NC1CCCC1 (stereo not drawn),4.89%,5.41%,1.55%,-1.73%,0.301%
CSCC(=O)N[C@@H]1CN(Cc2cccnc2)C[C@H]1CN(C)C,-7.08%,-11.1%,-3.7%,-9.94%,-2.67%
CC1(C(=O)NC2CCCCCCC2)Cn2c(cc3sccc32)C(=O)N1Cc1cccc(Cl)c1 (stereo not drawn),1.21%,0%,8.22%,5.62%,1.21%
Cc1cc(N(C)C)ccc1-c1nc2ccc(-c3nc4ccc(N5CCN(C)CC5)cc4[nH]3)cc2[nH]1,-13.2%,-4.28%,-84.7%,-15.4%,-7.44%
CCc1ccc(N2C(=O)c3cc(-c4ccco4)nn3CC2(C)C(=O)NC2CCCCCC2)cc1 (stereo not drawn),-1.19%,0%,5.87%,-7.7%,-2.06%
CCCN1C[C@H](CSC)C[C@@H]2c3cccc4[nH]cc(c34)C[C@H]21,-4.29% and -25.4%,-2.04% and 7.88%,-4.64% and -9.58%,-13.1% and -9.94%,-21.9% and -16.9%
